Measured values taken from the supplement of paper PMC3334620.
Over roughly 33,000 sequences, “E-score (-0.5 to 0.5)” has its median near -0.04; the highest 2% begin near 0.36. Some of the results follow.

These sequences were tested against T1, Hmlalpha2 (UniProt P0CY09) (assay: PBM E-score (8-mer binding enrichment) (E-score (-0.5 to 0.5)); higher = stronger / more preferred TF binding; most listed sequences are background and not binding sites). Conditions: protein concentration: 200 nM; construct: GST-full length.
T1 sequence: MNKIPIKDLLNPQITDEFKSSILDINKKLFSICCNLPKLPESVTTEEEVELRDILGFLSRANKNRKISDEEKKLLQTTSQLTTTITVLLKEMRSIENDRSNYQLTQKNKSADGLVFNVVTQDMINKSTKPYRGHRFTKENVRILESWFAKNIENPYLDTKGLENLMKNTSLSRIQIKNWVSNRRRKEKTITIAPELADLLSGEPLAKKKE
In short: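 For each ungapped eight-base word taken together with its reverse complement, the Universal PBM Analysis Suite assigned an E-score. Binding data came from GST-tagged yeast transcription factors, applied at about 100-200 nM, on universal all-10-mer Agilent arrays made double-stranded by primer extension. Fluorescent anti-GST marked bound protein, and scans were normalised with masliner.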

Sequence | PBM E-score
CTTTATCA | 0.0563
GCAGCGCA | -0.137
ACAGCATA | 0.0944
AGTTTACC | 0.075
ACCGGCAA | -0.114
CAGATGAA | 0.0555
AACAGCCG | -0.0483
GACGACAC | 0.0469
CAAAGATC | 0.166
AATGTCAG | 0.0789
ACTCTCTA | -0.132
GCCGACGC | -0.106
CAAAGGGG | -0.115
AGATTCAG | -0.0179
CCTAGGCC | -0.269
CGGAGTGA | -0.017
AGCCAGCG | -0.231
ACTCTCCT | -0.223
GCAGCGAA | 0.11
ATTCTAGG | 0.137
CTACAGAC | 0.024
AGGAACAG | -0.102
ATCATCTA | -0.143
ACCCAGCA | 0.0344
ATCCTAAT | -0.0163

Sequence | PBM E-score
CACCCAGA | -0.106
CCTTGTTC | -0.0497
ATAGTGAC | -0.0497
CATTGGCG | -0.0178
ATGACGTA | 0.258
ATGGTTGC | -0.21
CAAGAACG | 0.144
GATGTGCA | -0.091
ATCAAATA | 0.0702
ATGTTTTC | 0.421
ATACCTGC | -0.0573
CCATTCAA | 0.127
AGCTAATG | -0.0817
ATCGTAAT | 0.273
CGAGACAA | -0.0967
ACAAAGCA | 0.24
AGCTCACG | -0.0176
ACTTAACA | 0.388
CGCTACAC | 0.255
CGCCGCGC | -0.047
CAGAAGCC | -0.169
TATCGCAA | -0.0522
GAGTGAAC | -0.0242
AATGTGTA | 0.371
CACTATAC | 0.129

Sequence | PBM E-score
GGAGACAC | -0.0636
AGGGACGG | -0.331
ACATCTAA | 0.0565
GCGCGCCA | 0.0344
CCTCGCAA | -0.21
AACCCTCG | -0.0216
CAGAGCGA | -0.187
GTGGTTTA | 0.0203
AGGGGCGA | -0.301
TTATTCAA | 0.248
AGCAGTAA | 0.0836
ATGATAGG | -0.27
AGTCAAAT | 0.0681
AGGGTCCA | -0.327
GCATACGC | 0.0496
ATACCCGA | -0.119
AGAGTAGG | -0.0491
ACTCTTGC | -0.055
CGCTTCAC | -0.034
GGGGAACA | -0.173
GAATTGTC | -0.0602
CGACCCAA | -0.0413
ATCTGAGG | -0.187
ACGTTCTC | 0.14
AGCAGAGG | -0.25

Sequence | PBM E-score
CTCCCGCC | -0.181
CTAAGTGA | 0.106
ATGCTATC | -0.0381
TCCAGAAA | 0.15
CAGTTACG | 0.0563
ACTCGATC | 0.0217
GGTGAGAA | -0.0632
CAAGGCGA | -0.143
CACTTGCA | -0.0966
ACTGTGAA | 0.0776
ACTCTATG | 0.0349
ACGGTCAG | -0.0812
AGGAAACG | -0.152
CCCGTAAC | 0.00141
TGAGGCAA | -0.138
ACATTGAG | 0.0552
GACTTAGA | -0.0336
CAACAAAA | 0.23
TCCGCGGA | -0.0621
TTACATAA | 0.474
CACCCTTC | -0.182
CTCCGGAG | -0.341
TGCGAACA | 0.126
ATCGCTAG | -0.143
GGGGAAGA | -0.268

Sequence | PBM E-score
AAAATGAG | -0.0631
CACTGTGC | 0.0252
CACAGGGG | -0.0674
AATGACGG | -0.0373
CCTGTCGA | 0.0365
CTGGTAAC | 0.0518
ACCATCCC | -0.217
ACTCCAAA | -0.0902
CTTCCCTA | -0.266
AGTTGCCA | -0.222
CTGCTAAC | -0.0554
ACCACACC | -0.188
AAGGAGGT | -0.27
GGGACCCC | -0.336
AGCCGCTG | -0.237
ACCCGTGA | -0.178
CACCTTCA | -0.0799
CAAGTACC | 0.0735
AGCGCCAT | -0.21
ACGGAGTG | -0.0802
AACTCTAG | -0.0239
AGATCCCT | -0.175
AGGTCGGC | -0.305
CTCCTCGC | -0.164
AGCCGCTC | -0.0797

Sequence | PBM E-score
ATATGCGG | -0.0308
AAACTCGT | 0.0763
CCCTTCAA | 0.0627
ACTCGAGC | -0.0138
AAATCGGT | -0.143
TAGGAGAA | 0.122
AGTATTTC | 0.0665
ATGACCGG | -0.246
TATGTGGA | 0.123
GATTCTCC | -0.339
CCCCTGAC | -0.00088
GTGGATTA | -0.0557
AGCAGGAC | -0.0809
CACTCAGA | -0.0299
AACGATCA | 0.0598
AAACTGAG | -0.191
CAGTTAGC | -0.262
GTGGCCGA | -0.22
ACTAGGAT | 0.0792
CCCGTACC | -0.247
ATAAGCGG | -0.219
AATCTGGG | -0.297
GCACCCAC | 0.0011
AAGGGGAA | -0.0477
AGCTAGGA | -0.163

Sequence | PBM E-score
AACAGACT | 0.105
CAGTGGTA | -0.142
CCCCGAAC | -0.199
AGTAGAAG | -0.025
AAGACAGT | -0.0478
ACAGGGGC | -0.195
AAAGCTAC | 0.0863
CACCAACG | -0.0538
CTCCTCTA | -0.127
TCGTCTCA | -0.136
CCCCCGCG | -0.241
CAGCAAAA | 0.0513
GCATTCGA | -0.118
CTCTTACC | 0.207
AAATTTCG | 0.0127
AGCAGCCT | -0.0877
CCGTAAAA | 0.12
GGGTAAAA | 0.185
GACGGAAA | -0.16
CTTGCCCA | -0.093
AGGAAACC | -0.0996
AGTCAGTG | -0.191
ACACGGGG | 0.3
AATGAGAG | -0.123
AACACTGT | 0.143

Sequence | PBM E-score
CCGCGGAC | -0.239
ATTGGCCC | -0.212
CACCAGCG | -0.243
ATACTACA | 0.32
AACTTAAA | 0.232
AACGTTTC | -0.00212
CAGTAAAG | 0.00916
GGTAGTGA | -0.219
CGCAGAAA | -0.155
GGACGACA | 0.053
GCTTCAGA | -0.171
ATCCAAAA | 0.0105
GAACTAGC | -0.178
CTCATGAG | -0.0301
CCATAAGA | -0.237
AGCGAATG | -0.114
ACCATACG | 0.0287
AGCGGGGC | -0.167
AAGGCCTG | -0.121
GGTTTACA | 0.396
AGTAACGC | 0.114
AAACATGC | 0.37
ATTAGCTG | 0.0197
AAAGTTTA | 0.25
TAATTACA | 0.462

Sequence | PBM E-score
CGGGCGCA | -0.164
GATGAAAC | 0.15
AACCTTCC | -0.0676
CTGAAATA | -0.0461
CAGAAACG | 0.156
GCGTCACC | -0.168
ATCGAAAA | 0.0165
ATAGCCAC | -0.157
CTTCTACC | -0.0533
CCGATGTA | 0.155
ACATAGGC | 0.351
CCTCCGCG | -0.147
AGACCGTC | -0.162
AAAGTACC | 0.107
TATAGAAA | 0.116
ACTATAGT | 0.0634
AATATCAG | -0.0136
GTTCGCAA | 0.0948
CTGCGGCC | -0.161
CTGCGGGC | -0.187
GAAATAGA | 0.0697
GGCCCCCC | -0.464
GAAGTACC | -0.0771
GTCTCGCA | -0.167
CAGTCGTA | 0.0455

Sequence | PBM E-score
AATCGGGT | 0.0647
ACAACACC | 0.182
CTTAAAAC | 0.201
CGCTAGAC | -0.226
CGCCGGCG | -0.0773
CATTAAAG | 0.248
CTAAGAGC | -0.324
AACCTCGA | -0.0213
ATTTGAGA | -0.0947
ACGGCGTA | 0.242
GTGTTCTA | 0.233
AAAAGTAT | 0.0425
AAGGAACC | -0.0327
AGAAGTGC | -0.0933
AATCAACC | -0.103
AGCAAGCT | -0.132
AAGACCCC | -0.117
AAAATACC | 0.0851
CGAATCAC | 0.0204
TAATGGAA | 0.1
ACTCACCA | -0.0493
ACGCTGAG | -0.111
TAGACTGA | -0.0778
CTTCTAAA | -0.0253
GTTCGGCA | -0.0575

Sequence | PBM E-score
CGATCCAG | -0.137
AGGTGGAT | -0.178
ACGATGAT | -0.0322
CTTTTCTA | -0.207
ATCAGTTA | 0.223
GACTAAGA | -0.083
AAGCGGAT | -0.124
AAGACGTA | 0.163
ATGAGGTA | 0.136
ATAAAAAA | 0.135
CGTGGCGA | -0.198
TCCGCACA | -0.139
CACTCCTA | -0.0161
AACGTTAG | 0.0576
GGGTACTA | 0.134
CGGTTCAC | -0.197
CTAAATTC | -0.0565
ATTCCACG | 0.00592
TGACACCA | -0.0928
GTGTCTGA | -0.041
AGTGGCGA | -0.145
GCAACATA | 0.219
CGGAAGCC | -0.151
GCGAAGAA | -0.0224
GTGTCCTA | 0.0274

Sequence | PBM E-score
AGTAGTGC | -0.153
GGCGGCAA | -0.158
ATGGCCGA | 0.0453
GCCTAAAC | -0.0969
CGGCCTGC | -0.0493
TCGGGTAA | 0.145
AGCGCGTG | 0.107
GCGGAGAC | -0.0477
GGGATGAC | -0.259
GAACATAA | 0.191
CGTCATAG | -0.242
CCAGCTGG | -0.0862
TCACCGCA | -0.093
AACCGCGA | 0.0922
AGGGCGAC | -0.233
CCACCTCC | -0.239
ACTTCCGA | -0.0716
ACCGTCAA | -0.0762
GAATACGC | 0.357
CGTTCAGC | -0.159
AGGCCCAC | -0.272
AAGCCGAC | -0.155
AACTTGGA | -0.0733
CGGCTGTA | -0.109
CTCCTGAA | -0.256

Sequence | PBM E-score
AAGATACC | -0.0459
AGACGTAA | 0.301
AACCGAAG | -0.0371
GCCCTGCA | -0.167
CCTGCGAG | -0.0862
GCTAGACA | 0.0886
GGATAGAA | -0.0372
AGGTAACG | -0.00149
AAGGGCGT | -0.0667
CATTTTCG | -0.0604
CACTCTCG | 0.0218
ACAGGCTA | -0.0231
ACCGAGAT | -0.117
TGATTAAA | 0.133
ATTTTAAG | 0.109
CGTGATAG | -0.035
CATTACCC | -0.00064
CGGTTACA | 0.367
CTAAACTA | -0.0708
CATCGCCC | -0.116
CGCCCAAG | -0.181
TCGAATAA | -0.121
CCAGACAC | -0.0987
CTCGGTCC | -0.218
CCCGTTTC | -0.125

Sequence | PBM E-score
AGGTGCCC | -0.192
CAGGATAG | 0.0086
CAAACTAG | 0.0172
ATGAACAT | 0.323
AGAAAGAG | -0.0941
GAACAGTC | -0.323
ATCTTGGC | -0.22
AAGTAATC | 0.36
CCATGCCA | -0.0773
ATTCTCGC | -0.0899
CAAGGTCA | -0.102
AGTGAAAG | -0.0314
ATCTTTCC | -0.136
ATGTGTGA | 0.202
GATACGTA | 0.255
AACATATC | 0.316
CGGGAGAC | -0.221
GCTCGGGA | -0.321
AAGGGCGA | -0.0762
